Laboratory results reported in PubChem BioAssay (NCI).
“And” between values parts separate entries of the source, which are not always exact repeats. Identical values can stand only once.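 All cell lines were grown in 96-well plates and treated with compound for 48 hours. Abbreviation: GI50, concentration required for 50% inhibition of growth. TGI marks complete inhibition of growth.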

These molecules were tested on NCI-H322M lung (assay: NCI tumour cell line growth inhibition, 48 h).
`O=C(CN(/C=C/C(=O)C(F)(F)F)c1ccccc1)c1ccc(F)cc1` was tested, and the GI50 was 22.3 µM and the TGI was 78.5 µM. `O=C1c2ccoc2C(=O)c2oc(=O)ccc21` showed a TGI of over 54.1 µM. Work on `CSc1nc(C)c(CCOC(C)=O)c(N=P(c2ccccc2)(c2ccccc2)c2ccccc2)n1` yielded a TGI of over 10 µM. Work on `Cc1cc(C)c(S(=O)(=O)N(CCCN)OCCCN)c(C)c1` yielded a TGI of over 100 µM. `CCCCCC(/C=C/[C@@H]1[C@@H](C(O)CCCCCC(=O)OC)C(=O)C[C@H]1O[Si](C)(C)C(C)(C)C)OCOCCOC` (stereo partly drawn) showed a TGI of 46.5 µM. For `CCOc1cc(/C=C/C(=O)CC(=O)/C=C/c2ccc(OC(=O)CNCCN(CC)CC)c(OCC)c2)ccc1OC(=O)CNCCN(CC)CC`, the GI50 was 3.05 µM and the TGI was 8.35 µM. `O=C(Nc1ccc(Cl)c(Cl)c1)C1C(=O)N(c2ccc(Cl)c(Cl)c2)C(=O)/C1=N\O` (stereo not drawn) gave a TGI of over 100 µM. With `COc1ccc(C(=O)/C=C/c2ccc(OCc3ccccc3)c(OC)c2)cc1OC` the GI50 was 3.44 µM and the TGI was 51.4 µM. For `O=C1c2ccccc2-n2c1nc1ccc(Cl)cc1c2=O`, the TGI was over 100 µM. In the case of `N=C(N)c1ccc(OCCCCCOc2ccc(C(=N)N)cc2)cc1`, the GI50 is reported as 12.8 µM and 18.6 µM and 46.7 µM and the TGI is reported as > 50 µM and 56 µM and > 100 µM. Molecule `Cc1ccc(NC2=CC(=O)C(=O)c3ccccc32)c(C)c1` has a GI50 of 2.11 µM and a TGI of 4.22 µM. `COC(=O)c1cc2ccccc2c2nc3ccccc3c(Cl)c12` was tested, and the TGI was over 100 µM. With `CC(C)CCCC(C)[C@H]1CCC2[C@@H]3CCC4Cc5nc6c(nc5C[C@]4(C)C3CC[C@@]21C)CC1CC[C@@H]2C(CC[C@@]3(C)C2CC[C@@H]3O)[C@@]1(C)C6` (stereo partly drawn) the TGI was over 100 µM. In the case of `Cc1ccc(-c2nc(C(Cl)Cl)nc3cc(C)nn23)cc1`, the GI50 is reported as 1.19 µM and the TGI is reported as 3.9 µM. `CCOC(=O)C(C)(Cc1ccc(O)cn1)NC(=O)c1ccccc1` (stereo not drawn) was tested, and the TGI was over 100 µM. With `CN(CCCNC(=O)c1c2ccc3ccccc3c2nn1C)CCCNC(=O)c1c2ccc3ccccc3c2nn1C` the TGI was 26 µM. With `COc1cccc(/C=C2/S/C(=N/Nc3nc(C)c(C(C)=O)s3)NC2=O)c1O` the TGI was over 100 µM. With `COC(=O)[C@]1(C)[C@H]2C[C@H]3O[C@H]4[C@H](O)[C@@H](O)OC(CC(O)C(C5=CC(=O)OC5)C(C5=CC(=O)OC5)C(O)CC56CCCCC7[C@@H](C)[C@H](C[C@H]8[C@](C)(C(=O)OC)[C@H](O)CC[C@]78C)O[C@H]([C@@H](O)[C@H](O)O5)[C@H]6O)(CCCCC([C@@H]3C)[C@]2(C)CC[C@@H]1O)[C@H]4O` (stereo partly drawn) the TGI was 0.404 µM. Work on `Cc1cc(C)nc(NC(=S)Nc2ccc(Cl)cc2)c1` yielded a TGI of over 100 µM. `CC(C)(CC1(C)NC(=O)NC1=O)OCc1ccccc1` (stereo not drawn) showed a TGI of over 100 µM. Molecule `CO[C@]12C[C@@H](CNC(=O)c3cc(Br)c[nH]3)O[C@H]1NC(=O)N2` has a TGI of over 100 µM. Work on `Cc1cc2c3c(c1)CCCN3CCC2` yielded a TGI of over 10 µM. In the case of `CC(=O)O[C@H]1C[C@H]2[C@@H]([C@H](OC(C)=O)C[C@@H]3CC4(CC[C@@]32C)OOC2(CCCCC2)OO4)[C@@H]2CC[C@H]([C@H](C)CCC(=O)O)[C@@]12C`, the TGI is reported as 26.9 µM. `Cc1cc(OC(=O)c2c(C)cc(OC(=O)c3c(C)cc(O)cc3O)cc2O)cc(O)c1C(=O)O` was tested, and the TGI was over 100 µM. For `COc1cc(OC)c(/C=C/C(=O)c2c(N)cc(OC)cc2OC)c(OC)c1`, the GI50 was 10.1 µM and the TGI was over 100 µM. `N#Cc1c(N)nc2n[nH]c(N)c2c1-c1ccccc1` was tested, and the TGI was over 71.4 µM. In the case of `Cc1cc(NS(=O)(=O)c2ccc(NC(=O)c3ccc4nc5ccccc5c(Nc5ccc(S(=O)(=O)Nc6cc(C)on6)cc5)c4c3)cc2)no1`, the TGI is reported as over 50 µM. In the case of `Clc1ccc(Cn2cc(/C=N/n3cnnc3)c3ccccc32)cc1`, the TGI is reported as over 100 µM. With `Cc1cc(/N=C/c2ccc(Cl)cc2)n(-c2ccccc2)n1` the TGI was over 100 µM. With `COc1cccc(N2C(=O)C3CC(CC(C)(C)C)c4c([nH]c5ccccc45)C3C2=O)c1` (stereo not drawn) the TGI was over 10 µM. Molecule `O=C1C2C(C(=O)N1CC[Se][Se]CCN1C(=O)C3C(C1=O)[C@H]1C=C[C@@H]3C1)[C@H]1C=C[C@@H]2C1` (stereo partly drawn) has a GI50 of 0.467 µM and a TGI of 3.73 µM. `CC1CCC2c3c([nH]c4ccccc34)C3C(=O)N(c4ccccc4)C(=O)C3C2C1` (stereo not drawn) gave a TGI of over 250 µM. With `COc1cc2c3c(n(CCCN4CCSCC4)c(=O)c2cc1OC)-c1cc2c(cc1C3=O)OCO2` the GI50 was over 100 µM and the TGI was over 100 µM. With `CC(=O)N1c2ccccc2[C@H]2CCc3c([nH]c4ccccc34)[C@H]21` the TGI was 32 µM.
